Assay results published in PubChem BioAssay (NCI).
Several values for one entry are separate records, joined by “and”; a condition that tells them apart may be missing. Identical values can stand only once.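 These data come from cells grown in 96-well plates and exposed to compound for 48 hours at five concentrations. At the GI50, growth is halved. TGI marks complete inhibition of growth.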

These compounds were tested on NCI-H322M lung (assay: inhibition of tumour cell growth, NCI panel, 48 h).

SMILES | TGI | GI50 [µM]
Cc1nc2cc3[nH]c4ccccc4c(=O)c3cc2s1 | > 100 µM | 
COc1cccc2c1CCc1sc(CN3CCN(C)CC3)nc1-2 | > 100 µM | 
C/C=C1/CN2CCC34c5ccccc5N5C(=O)C(C6CC78c9ccccc9N9C(=O)C=CC(C%10CC7N6C/C%10=C/C)C98)=CC(C1CC23)C54 (centres undefined) | 13.7 µM and 22.9 µM | 10.8
Cc1ccc2c(c1)n([O-])c(C(F)(F)F)c(C(=O)c1ccco1)[n+]2=O | 5 µM | 1.52
OC[C@H](O)[C@@H](OCc1ccccc1)[C@H](NCc1ccccc1)c1cccs1 | > 100 µM | 
C/C(COc1ccccc1)=N\NC(N)=S | > 100 µM | 
Cn1cnc([N+](=O)[O-])c1Sc1nnc(-c2ccc(Cl)cc2)n1C | > 100 µM | 
CC(C)C(C=O)C(O)(C(F)(F)F)C(F)(F)F (centres undefined) | > 100 µM | 
OCC1OC(n2cnc3cc(Cl)c(Cl)cc32)C(O)C1O (centres undefined) | > 90.6 µM | 24.1
C=c1c2ccccc2oc2nc3[nH]c(N)c(C#N)c(N)c3c(=N)c12 | > 100 µM | 
COc1ccc(/C=N/NC(=O)NCCNCCO)cc1 | > 100 µM | 
CC(C)(C)c1ccc(OCCOc2ccc(C(C)(C)C)cc2NC=O)c(NC=O)c1 | > 78.7 µM | 
CNC(=O)/C(C#N)=C(\N)N1CCCC1 | > 100 µM | 
OCC1OC(N2CCN(C3OC(CO)C(O)C(O)C3O)CC2)C(O)C(O)C1O (centres undefined) | > 100 µM | 
CCN(Cc1c(F)cccc1C(F)(F)F)c1ccc(CO)c(Cl)c1 | 29.4 µM | 15.5
